# From PubChem BioAssay (Tox21)
# “And” between values parts separate entries of the source, which are not always exact repeats. Equal values may be shown once. Inconclusive results, whose numbers are uncertain, are shown with a selection of clear calls. For some assays here: A potency beside an inconclusive call is a rough fit, not a confirmed value. The source holds several records for some structures; these can differ, active in one and inactive in another. The source made the active and inactive calls. Unless noted, calls come from the whole dose curve; as a rule, active = well fitted curve in the direction sought with a large enough effect in the repeat runs; inconclusive = weak or mixed curves; inactive = no such curve, though single readings can be large; an effect the other way counts as inactive or inconclusive.
# Tests used:
# [1] = biological target: Estrogen receptor beta (Homo sapiens) (UniProt Q92731); test: qHTS assay to identify small molecule agonists of the estrogen receptor beta (ER-beta) signaling pathway (AID 1259377; active = well fitted activation curve with a large enough effect in the signal ratio in the repeat runs, not every such curve was filed as active; inconclusive = weak or mixed curves, or effect the other way; the % refers to the signal ratio; note: potency is the fitted concentration of half-maximal effect; for activation: % is set by controls: 0 for no effect and ±100 for the full control effect); conditions: ER-beta-UAS-bla HEK293T, beta-lactamase FRET ratio, 16 h; activation: at 92.4 µM (top of the series) unless noted
# Summary of the method: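 A UAS-controlled beta-lactamase reporter in ER-beta-UAS-bla HEK293T cells reports receptor activation. Compounds act for 16 hr at 37C in 2% charcoal-stripped serum, and a FRET substrate is read by fluorescence after 2 hours.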
# [2] = biological target: Progesterone receptor (Homo sapiens) (UniProt P06401); test: qHTS assay to identify small molecule antagonists of the progesterone receptor (PR) signaling pathway (AID 1346795; active = well fitted inhibition curve with a large enough effect in the signal ratio in the repeat runs, not every such curve was filed as active; inconclusive = weak or mixed curves; the % refers to the signal ratio; note: potency is the fitted concentration of half-maximal effect; for activity change, negative = inhibition: % is set by controls: 0 for no effect and ±100 for the full control effect); conditions: PR-UAS-bla HEK293T, beta-lactamase FRET ratio, 16 h; activity change, negative = inhibition: at 92.4 µM (top of the series) unless noted
# Summary of the method: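 HEK293T PR-UAS-bla reporter cells in charcoal-stripped serum (2%) received compound after a 6 hr settling period, followed by R5020 agonist at 1 nM final; 16 hr incubation preceded the FRET substrate step and fluorescence measurement.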
# [3] = qHTS assay to identify small molecule agonists of the progesterone receptor (PR) signaling pathway - cell viability counter screen (AID 1346799; calls by dose curve; note: nearly all actives have a fitted effect of over 45% in size; note: potency is the fitted concentration of half-maximal effect)
# Summary of the method: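 Counter screen for cytotoxicity: compound-treated PR-UAS-bla HEK293T cells (16 hr, 37C, 5% CO2) were assayed with CellTiter-Glo, luminescence measured after 30 min at room temperature.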
# [4] = qHTS assay to identify small molecule agonists of the estrogen receptor beta (ER-beta) signaling pathway - cell viability counter screen (AID 1259380); note: nearly all actives have a fitted effect of over 30% in size; note: potency is the fitted concentration of half-maximal effect
# Summary of the method: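 Compounds dissolved in DMSO were pin-transferred onto ER-beta-UAS-bla HEK293T cells that had settled 6 hr, and exposure ran 16 hr at 37C. Following the reporter read, CellTiter-Glo luminescence after 30 min at room temperature indicated cytotoxicity.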
# [5] = qHTS assay to identify small molecule agonists of the estrogen receptor alpha (ER-alpha) signaling pathway in the presence of an antagonist - cell viability counter screen (AID 1259386);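 note: potency is the fitted concentration of half-maximal effect; cells exposed to compounds for 22 h at 37 °C before the viability read; nearly all actives have a fitted effect of over 30% in size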
# Summary of the method: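 Using estrogen-depleted VM7Luc4E2 cells, the 15-concentration compound series was applied together with 10.0nM ICI-182,780 and incubated 22hr at 37C/5% CO2. Cell viability was then scored by CellTiter-Fluor.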
# [6] = qHTS assay to identify small molecule antagonists of the TGF-beta/Smad signaling pathway (AID 1346924; active = well fitted inhibition curve with a large enough effect in the signal ratio in the repeat runs, not every such curve was filed as active; inconclusive = weak or mixed curves; the % refers to the signal ratio); conditions: SBE-bla HEK293T, TGF-beta/Smad reporter, beta-lactamase ratio
# Summary of the method: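 Read-out was FRET-substrate fluorescence (405 nm excitation; 460 and 530 nm emission) after 2 h at room temperature. Before that, cells carrying a Smad-binding-element beta-lactamase reporter in HEK 293T had been stimulated 5 h at 37 C with TGF-beta1 (0.25 ng/mL addition solution) in the presence of test compound.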
# [7] = qHTS assay to identify small molecule antagonists of the estrogen receptor beta (ER-beta) signaling pathway - cell viability counter screen (AID 1259382); note: nearly all actives have a fitted effect of over 55% in size; note: potency is the fitted concentration of half-maximal effect
# Summary of the method: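 CellTiter-Glo ATP luminescence measured after the LiveBLAzer read in the same wells; ER-beta-UAS-bla HEK293T cells, 16 hr compound treatment with 1nM 17-beta-estradiol agonist at 37C, 5% CO2.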
# [8] = biological target: Thyrotropin receptor (Homo sapiens) (UniProt P16473); test: qHTS assay to identify small molecule antagonists of the thyroid stimulating hormone receptor (TSHR) signaling pathway (AID 1259385; calls by dose curve; note: nearly all actives have a fitted effect of over 20% in size; note: potency is the fitted concentration of half-maximal effect); conditions: TSHR-HEK293 cAMP HTRF, TSH-stimulated antagonist mode; activity change, negative = inhibition: at 92.4 µM (top of the series) unless noted
# Summary of the method: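 TSHR-HEK293 cells were plated and held 18 h at 37C/5% CO2, then given compound plus Ro20-1724 and stimulated with TSH at 1.5 ng/mL final. After 30 min at room temperature, cAMP was detected with cAMP-d2/anti-cAMP-cryptate (1 h) by fluorescence.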
# [9] = biological target: Estrogen receptor (Homo sapiens) (UniProt P03372); test: qHTS assay to identify small molecule agonists of the estrogen receptor alpha (ER-alpha) signaling pathway in the presence of an antagonist (AID 1259383; calls by dose curve; note: potency is the fitted concentration of half-maximal effect; nearly all actives have a fitted effect of over 15% in size)
# Summary of the method: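 Luminescent ERE-luciferase reporter, VM7Luc4E2 cells (endogenous ER-alpha); 10.0nM ICI-182,780 final; 15-point compound titration; 22hr at 37C; ONE-Glo, 30min RT.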
# [10] = qHTS assay to identify small molecule agonists of the TGF-beta/Smad signaling pathway - cell viability counter screen (AID 1346829); note: nearly all actives have a fitted effect of over 45% in size; note: potency is the fitted concentration of half-maximal effect
# Summary of the method: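 Here the cytotoxicity of library compounds is measured in SBE-bla HEK 293T cells treated for 5 hr, using CellTiter-Glo added to wells already read for the beta-lactamase reporter.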
# [11] = biological target: Estrogen receptor beta (Homo sapiens) (UniProt Q92731); test: qHTS assay to identify small molecule antagonists of the estrogen receptor beta (ER-beta) signaling pathway (AID 1259378; active = well fitted inhibition curve with a large enough effect in the signal ratio in the repeat runs, not every such curve was filed as active; inconclusive = weak or mixed curves, or effect the other way; inactive = no such curve, though single readings can be large or run the other way; the % refers to the signal ratio; note: potency is the fitted concentration of half-maximal effect; for activity, negative = inhibition: % is set by controls: 0 for no effect and ±100 for the full control effect); conditions: ER-beta-UAS-bla HEK293T, beta-lactamase FRET ratio, 16 h
# Summary of the method: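 ER-beta-UAS-bla HEK293T (GripTite) cells in 2% charcoal-stripped FBS medium were preincubated 6 hr at 37C, dosed with compound, then stimulated with 1 nM E2 (final) for 16 hr; beta-lactamase reporter read by B/G FRET fluorescence after 2 hr substrate loading.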
# [12] = qHTS assay to identify small molecule agonists of the androgen receptor (AR) signaling pathway in the presence of an antagonist - cell viability counter screen (AID 1259379); note: nearly all actives have a fitted effect of over 25% in size; note: potency is the fitted concentration of half-maximal effect
# Summary of the method: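 Each compound was tested at 15 concentrations on MDA-kb2 cells in the presence of 3.0uM nilutamide. Viability was measured by CellTiter-Fluor fluorescence after a 16 hr incubation at 37C in a CO2-free atmosphere.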
# [13] = biological target: Progesterone receptor (Homo sapiens) (UniProt P06401); test: qHTS assay to identify small molecule agonists of the progesterone receptor (PR) signaling pathway (AID 1346784; calls by dose curve; note: nearly all actives have a fitted effect of over 30% in size; note: potency is the fitted concentration of half-maximal effect; for activation: % is set by controls: 0 for no effect and ±100 for the full control effect); conditions: PR-UAS-bla HEK293T, beta-lactamase FRET ratio, 16 h; activation: at 92.4 µM (top of the series) unless noted
# Summary of the method: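 Agonist mode, quantitative HTS format in a HEK 293T line expressing a UAS-controlled beta-lactamase reporter; 16 hr compound exposure at 37C in 2% charcoal-stripped FBS, then LiveBLAzer B/G FRET fluorescence.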
# [14] = qHTS assay to identify small molecule antagonists of the progesterone receptor (PR) signaling pathway - cell viability counter screen (AID 1346798); note: nearly all actives have a fitted effect of over 50% in size; note: potency is the fitted concentration of half-maximal effect
# Summary of the method: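 Same-well multiplex: after 16 hr at 37C with compound and R5020 stimulation, HEK293T cells carrying a UAS-bla reporter received LiveBLAzer substrate (2 hr RT), then CellTiter-Glo (30 min RT) for luminescent viability.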
# [15] = qHTS assay to identify small molecule agonists or antagonists of the thyroid stimulating hormone receptor (TSHR) signaling pathway - wild type cell line counter screen (AID 1259384; calls by dose curve; note: potency is the fitted concentration of half-maximal effect); conditions: HEK293 wild type, cAMP HTRF counter-screen; cAMP activity change: at 92.4 µM (top of the series), stronger effect = higher value unless noted
# Summary of the method: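 Wild-type HEK293 cells were plated 18 h at 37 C/5% CO2, pin-dosed with compound plus Ro20-1724 medium, held 30 min at room temperature, then given cAMP-d2 and anti-cAMP-cryptate; fluorescence was read after 1 h. Fifteen concentrations, triplicate.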
# [16] = qHTS assay to identify small molecule agonists of the TGF-beta/Smad signaling pathway (AID 1346859; active = well fitted activation curve with a large enough effect in the signal ratio in the repeat runs, not every such curve was filed as active; inconclusive = weak or mixed curves; the % refers to the signal ratio; note: potency is the fitted concentration of half-maximal effect); conditions: SBE-bla HEK293T, TGF-beta/Smad beta-lactamase reporter, 5 h; activation: at 76.8 µM (top of the series) unless noted
# Summary of the method: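 Smad-responsive beta-lactamase reporter cells (HEK 293T) received compounds from DMSO stocks after overnight attachment, were incubated 5 hr, then treated 2 hr with FRET substrate before dual-emission fluorescence measurement (405 nm excitation).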
# [17] = activity, negative = inhibition: at 76.8 µM (top of the series) unless noted
# [18] = activity, negative = inhibition: at 92.4 µM (top of the series) unless noted
# Tags give direction and shape of the fitted curve or compound fluorescence and quenching.
# UniProt P06401, sequence (P06401 whole entry, looked up): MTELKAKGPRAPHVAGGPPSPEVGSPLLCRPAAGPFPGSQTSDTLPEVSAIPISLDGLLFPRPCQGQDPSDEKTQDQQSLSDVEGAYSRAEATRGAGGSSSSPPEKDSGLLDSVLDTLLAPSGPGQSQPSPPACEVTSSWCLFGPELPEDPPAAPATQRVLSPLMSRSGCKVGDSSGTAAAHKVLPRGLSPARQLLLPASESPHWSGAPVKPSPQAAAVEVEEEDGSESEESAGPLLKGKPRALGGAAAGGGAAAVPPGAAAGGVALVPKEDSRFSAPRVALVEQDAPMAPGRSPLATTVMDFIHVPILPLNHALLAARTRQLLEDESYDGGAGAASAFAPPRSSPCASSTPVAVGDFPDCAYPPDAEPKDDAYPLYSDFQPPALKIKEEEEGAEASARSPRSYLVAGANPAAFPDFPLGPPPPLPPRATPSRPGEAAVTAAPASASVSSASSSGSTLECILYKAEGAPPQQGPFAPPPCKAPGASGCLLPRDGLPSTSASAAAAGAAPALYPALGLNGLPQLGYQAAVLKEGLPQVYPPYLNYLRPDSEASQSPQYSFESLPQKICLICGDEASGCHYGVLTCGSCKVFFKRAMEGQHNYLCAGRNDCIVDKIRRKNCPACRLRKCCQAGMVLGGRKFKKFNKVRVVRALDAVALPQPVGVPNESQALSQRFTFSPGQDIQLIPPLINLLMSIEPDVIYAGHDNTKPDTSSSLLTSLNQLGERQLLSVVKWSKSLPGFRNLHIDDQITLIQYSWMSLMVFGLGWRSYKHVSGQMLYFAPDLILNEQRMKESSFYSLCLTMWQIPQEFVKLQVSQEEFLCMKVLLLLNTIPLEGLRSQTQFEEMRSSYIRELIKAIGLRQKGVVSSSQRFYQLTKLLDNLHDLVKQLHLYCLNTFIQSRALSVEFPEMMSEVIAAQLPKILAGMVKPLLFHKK
# UniProt Q92731, sequence (Q92731 whole entry, looked up): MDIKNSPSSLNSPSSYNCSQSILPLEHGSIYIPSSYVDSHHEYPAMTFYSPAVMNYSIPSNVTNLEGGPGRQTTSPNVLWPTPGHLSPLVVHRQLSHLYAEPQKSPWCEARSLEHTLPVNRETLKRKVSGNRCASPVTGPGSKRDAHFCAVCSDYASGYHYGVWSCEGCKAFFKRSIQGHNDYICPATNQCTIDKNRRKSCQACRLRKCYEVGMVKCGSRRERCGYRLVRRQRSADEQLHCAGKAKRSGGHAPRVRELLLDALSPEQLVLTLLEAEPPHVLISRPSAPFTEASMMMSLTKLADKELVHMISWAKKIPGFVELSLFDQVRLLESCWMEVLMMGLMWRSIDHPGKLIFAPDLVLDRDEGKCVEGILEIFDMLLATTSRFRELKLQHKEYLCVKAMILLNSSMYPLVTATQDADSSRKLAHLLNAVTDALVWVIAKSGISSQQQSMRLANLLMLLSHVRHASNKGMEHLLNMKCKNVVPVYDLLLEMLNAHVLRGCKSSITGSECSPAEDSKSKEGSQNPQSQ
# UniProt P16473, sequence (P16473 whole entry, looked up): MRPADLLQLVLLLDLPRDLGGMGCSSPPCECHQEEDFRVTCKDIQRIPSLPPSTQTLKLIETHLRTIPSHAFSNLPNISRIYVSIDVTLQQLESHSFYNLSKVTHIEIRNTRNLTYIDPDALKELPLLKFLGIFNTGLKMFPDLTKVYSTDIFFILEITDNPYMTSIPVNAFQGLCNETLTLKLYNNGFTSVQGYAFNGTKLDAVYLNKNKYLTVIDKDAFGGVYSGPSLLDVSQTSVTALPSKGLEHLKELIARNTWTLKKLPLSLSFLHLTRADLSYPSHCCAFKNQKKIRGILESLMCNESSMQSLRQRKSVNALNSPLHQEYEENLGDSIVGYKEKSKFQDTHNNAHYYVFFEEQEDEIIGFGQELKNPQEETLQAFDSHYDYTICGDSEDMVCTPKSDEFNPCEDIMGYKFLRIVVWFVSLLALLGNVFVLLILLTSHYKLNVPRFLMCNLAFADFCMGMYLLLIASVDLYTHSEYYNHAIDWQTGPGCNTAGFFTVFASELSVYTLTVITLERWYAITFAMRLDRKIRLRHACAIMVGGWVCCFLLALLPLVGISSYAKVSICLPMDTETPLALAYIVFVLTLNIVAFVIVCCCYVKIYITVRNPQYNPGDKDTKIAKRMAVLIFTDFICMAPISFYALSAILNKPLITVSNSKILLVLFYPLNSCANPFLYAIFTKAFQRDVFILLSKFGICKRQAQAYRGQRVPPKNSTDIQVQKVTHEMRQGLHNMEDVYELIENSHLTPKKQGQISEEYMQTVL
# UniProt P03372, sequence (P03372 whole entry, looked up): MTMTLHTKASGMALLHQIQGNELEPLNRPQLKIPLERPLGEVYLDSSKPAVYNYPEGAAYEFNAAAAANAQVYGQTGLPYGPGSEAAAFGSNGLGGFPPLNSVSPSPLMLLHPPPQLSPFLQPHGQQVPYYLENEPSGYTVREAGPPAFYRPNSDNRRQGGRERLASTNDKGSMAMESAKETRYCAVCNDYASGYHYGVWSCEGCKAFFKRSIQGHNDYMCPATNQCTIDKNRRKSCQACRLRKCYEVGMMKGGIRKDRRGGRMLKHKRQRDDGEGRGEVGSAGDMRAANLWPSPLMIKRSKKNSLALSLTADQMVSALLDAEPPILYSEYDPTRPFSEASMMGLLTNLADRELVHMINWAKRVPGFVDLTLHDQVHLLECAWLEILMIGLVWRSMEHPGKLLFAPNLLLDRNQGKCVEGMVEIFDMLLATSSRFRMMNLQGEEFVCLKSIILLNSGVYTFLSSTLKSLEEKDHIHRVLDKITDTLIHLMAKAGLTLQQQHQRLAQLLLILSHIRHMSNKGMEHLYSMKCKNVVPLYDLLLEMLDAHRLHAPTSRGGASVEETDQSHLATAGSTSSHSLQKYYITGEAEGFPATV
smiles,measurement,setting,value
CC(=O)C1=C(C)[C@@H]2C[C@@]3(C1)[C@H](C)CC[C@H]3C2(C)C,Potency,[1],inactive
same,Potency,[2],"inconclusive: 61.1 µM [rising, partial curve, poor fit]"
same,Potency,[3],inactive
CN(C)c1nc(N(C)C)nc(N(C)C)n1,Potency,[1],inactive
same,Potency,[3],"inconclusive: 2.22 µM [rising, partial curve]"
OC/C=C/CO,Potency,[1],"inconclusive: 34.3 µM [activator, partial curve]"
same,Potency,[3],"inconclusive: 54.3 µM [cytotoxic, partial curve]"
CCC1Nc2cc(Cl)c(S(N)(=O)=O)cc2S(=O)(=O)N1 (configuration not stated),Potency,[1],inactive
same,"activity change, negative = inhibition",[2],inconclusive: -2.97% [at 42.5 µM]
O=C(O)Cn1c(=O)n(Cc2ccc(Br)cc2F)c(=O)c2ccc(Cl)cc21,Potency,[1],inactive
same,Potency,[4],"inconclusive: 61.1 µM [cytotoxic, single point]"
same,Potency,[5],"inconclusive: 30.6 µM [cytotoxic, partial curve]"
same,Potency,[3],"inconclusive: 15.4 µM [rising, full curve, poor fit]"
same,"activity, negative = inhibition",[6]; at 35.3 µM (top of the series),inconclusive: -6.84%
same,"activity, negative = inhibition",[6]; at 76.8 µM (top of the series),inconclusive: 3.79%
Cc1cccc([N+](=O)[O-])c1C,Potency,[1],inactive
same,Potency,[2],inactive
Cc1ccsc1/C=C/C1=NCCCN1C,Potency,[1],inactive
same,Potency,[7],inactive
same,Potency,[8],"inconclusive: 29.8 µM [falling, partial curve, poor fit]"
same,Potency,[2],inactive
O=C1Cc2cc(Cl)ccc2N1,Potency,[1],inactive
same,Potency,[3],inactive
Cc1ccc(O)c(-n2nc3ccccc3n2)c1,activation,[1],inconclusive: 0.569% and inconclusive: 4.86%
same,Potency,[4],"inactive and inconclusive: 77 µM [cytotoxic, single point]"
same,Potency,[9],active: 1.54 µM
same,Potency,[2],inconclusive: 60.6 µM and active: 48.6 µM
same,"activity change, negative = inhibition",[2],inconclusive: -36.9% [at 42.5 µM]
same,Potency,[10],"inconclusive: 24.5 µM [cytotoxic, partial curve, poor fit]"
same,"activity, negative = inhibition",[6]; [17],inconclusive: -33.4%
CC1CCCC(=O)C1=O (configuration not stated),Potency,[1],inactive
same,Potency,[2],inactive
C=C(C)C1CC=C(C)C(OC(C)=O)C1 (configuration not stated),activation,[1],inconclusive: 12.9%
same,Potency,[10],inactive
CCN1CCC[C@H]1CNC(=O)c1c(O)c(Cl)cc(Cl)c1OC,Potency,[11]; [18],inactive
CN(C)CCOC(c1ccccc1)c1ccccc1 (tested in a mixture with another compound),"activity, negative = inhibition",[11]; [18],inconclusive: -37.2%
same,Potency,[12],inactive
same,Potency,[4],active: 69.1 µM
same,Potency,[7],inconclusive: 61.6 µM [cytotoxic]
same,Potency,[5],"inconclusive: 15.5 µM [cytotoxic, partial curve]"
same,activation,[13],inconclusive: -7.54%
same,Potency,[14],"inconclusive: 69.1 µM [cytotoxic, single point]"
same,Potency,[3],"inconclusive: 61.6 µM [cytotoxic, partial curve]"
Cc1c(N)cccc1N,Potency,[11]; [18],inactive
C#CCN(C)Cc1ccccc1,"activity, negative = inhibition",[11]; [18],inconclusive: 29.3% [at 42.5 µM]
same,"activity, negative = inhibition",[11]; at 92.4 µM (top of the series),inactive: -11.8%
same,Potency,[4],"inconclusive: 29.8 µM [cytotoxic, single point]"
same,Potency,[14],inactive
same,Potency,[3],"inconclusive: 29.8 µM [rising, partial curve]"
CCCCCCCCCCCCOC(C)=O,Potency,[11]; [18],inactive
Brc1cc2ccccc2c2ccccc12,"activity, negative = inhibition",[11]; [18],inconclusive: -42%
same,Potency,[12],"inconclusive: 30.9 µM [cytotoxic, full curve]"
same,Potency,[7],inactive
same,Potency,[15],inconclusive: 32.7 µM
same,"activity change, negative = inhibition",[8],inconclusive: -12.5%
same,Potency,[2],"inconclusive: 27.5 µM [rising, full curve]"
same,Potency,[3],"inconclusive: 24.5 µM [cytotoxic, full curve]"
CCCC1CCC(=O)CC1,Potency,[11]; [18],inactive
Oc1c(I)cc(Cl)c2cccnc12,Potency,[11]; [18],"inconclusive: 54.4 µM [rising, single point] and inconclusive: 33.5 µM [rising, single point]"
same,Potency,[12],"inconclusive: 21.1 µM [cytotoxic, partial curve]"
same,Potency,[4],"inconclusive: 432 nM [cytotoxic, full curve] and inconclusive: 2.37 µM [cytotoxic, full curve]"
same,Potency,[7],"inconclusive: 19.3 µM [cytotoxic, partial curve] and inconclusive: 23.7 µM [cytotoxic, partial curve]"
same,Potency,[5],"inconclusive: 61 µM [cytotoxic, partial curve] and inconclusive: 33.5 µM [cytotoxic, single point]"
same,Potency,[2],active: 6.84 µM and active: 7.5 µM
same,Potency,[16],"inconclusive: 38.8 µM [rising, partial curve]"
same,"activity, negative = inhibition",[6]; at 35.3 µM (top of the series),inconclusive: 2.7%
same,"activity, negative = inhibition",[6]; at 76.8 µM (top of the series),inconclusive: -2.8%
CC(C)=CCC1C(=O)N(c2ccccc2)N(c2ccccc2)C1=O,Potency,[11]; [18],"inconclusive: 33.5 µM [inhibitor, single point]"
C[C@@H](O[C@H]1OCCN(Cc2n[nH]c(=O)[nH]2)[C@H]1c1ccc(F)cc1)c1cc(C(F)(F)F)cc(C(F)(F)F)c1,Potency,[11]; [18],inconclusive: 26.6 µM [partial curve]
same,Potency,[12],"inconclusive: 33.5 µM [cytotoxic, single point]"
same,Potency,[4],active: 26.6 µM
same,Potency,[8],inconclusive: 29.8 µM
same,Potency,[13],"inconclusive: 33.5 µM [cytotoxic, single point]"
same,Potency,[2],inconclusive: 10.6 µM
same,Potency,[14],"inconclusive: 33.5 µM [cytotoxic, single point]"
same,Potency,[3],"inconclusive: 37.6 µM [cytotoxic, single point]"
same,"activity, negative = inhibition",[6]; [17],inconclusive: -22% [at 35.3 µM]
